The results in this text go back to PubChem BioAssay (NCI).

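In this assay, cells in 96-well plates receive the compound at five concentrations for 48 hours. Endpoints are linearly interpolated between the surrounding concentrations. Abbreviation: GI50, concentration required for 50% inhibition of growth. TGI denotes the concentration required for complete inhibition of growth.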 Where only a bound is given, the exact number is not on record here.

The test system of the assay is NCI-H322M lung. Put plainly: growth of human tumour cells (NCI), 48 h.
With `CC(CC[C@@]1(C)C(=O)CCC2O[C@]21C)[C@H]1C[C@@H](c2ccoc2)OC1=O` (stereo partly drawn), the TGI is more than 100 µM.

Turning to `COc1cc2[nH]c3c(c2cc1OC)CCN[C@]31CC[C@]2(CC3c4c(cc(OC)c(O)c42)CCN3C)C[C@H]1OC` (stereo partly drawn), the TGI was more than 100 µM.

The compound `O=C(c1ccco1)N(C(=S)OCCOc1ccccc1)c1ccccc1` showed a TGI of 50.6 µM.

`CCOC(=O)Cc1nc2cc(F)c(F)cc2[nH]c1=O` gave a TGI of more than 100 µM.

`CC(=O)OC1C(Oc2c(C)cc3c(c2O)[C@@H](C)CC[C@@H]3[C@@H](C)CCC=C(C)C)OCC(O)C1O` (stereo partly drawn): the TGI was determined as 32.6 µM.

With `O=C(N/N=C/c1cc(Br)ccc1O)N/N=C/c1cc(Br)ccc1O`, the TGI was more than 100 µM.

`O=C1c2ccsc2C(=O)c2sc(CO)cc21` came in with a TGI of 3.92 µM.

The compound `O=c1cc(-c2ccc(Oc3ccccc3)cc2)[nH]c2cc3c(cc12)OCO3` registered a TGI of more than 100 µM.

For `CC1S/C(=N\N=C2/C(=O)Nc3ccc(Br)cc32)N(C2CCCCC2)C1=O` (stereo not drawn), the TGI turned out to be 7.08 µM.

`COc1cc(Br)cc2cc(-c3cn4c(n3)sc3ccccc34)c(=O)oc12` yielded a TGI of 58.7 µM.

On to `COc1cc2oc(-c3ccc(O)cc3)c(OC)c(=O)c2c(O)c1OC`, for which the GI50 was 66.3 µM and the TGI was more than 100 µM.

Regarding `COc1ccc(/C=C/c2c(C(=O)/C=C/c3ccccc3)c(C)nc3ccccc23)cc1`, the GI50 was 1.9 µM and the TGI came to 4.17 µM.

Take `C=CCCC1(CC(Sc2ccccc2)P(=O)(c2ccccc2)c2ccccc2)OCCO1` (stereo not drawn): the TGI is more than 10 µM.

In turn, `O=C1CC(c2cccc([N+](=O)[O-])c2)C2(C(=O)NC(=O)NC2=O)C(c2cccc([N+](=O)[O-])c2)C1` (stereo not drawn) displayed a TGI of 77.2 µM.

Regarding `COC(=O)C1=CS/C(=C2\S[C@@H]3[C@H](S2)[C@H]2C=C[C@@H]3C2)S1`, the TGI is more than 100 µM.

`C[Si](C)(C)OC1CC(=O)OC1n1cc(F)c(=O)[nH]c1=O` (stereo not drawn) yielded a TGI of more than 100 µM.

With `CC/C=C\C[C@H](O)C/C=C1/C(=O)C=C[C@@H]1C/C=C\CCCC(=O)OC`, the GI50 was 2.78 µM and the TGI was found to be 10.6 µM.

On to `CN(C)CCCN=c1c2ccccc2n(O)c2ccccc12`, for which the TGI was more than 100 µM.

The compound `Clc1ccc(-c2cc3nc4ccccc4nc3o2)cc1` gave a TGI of more than 100 µM.

`C=C(C)[C@H]1Cc2c(ccc3c2O[C@@H]2COc4cc(OC)c(OC)cc4[C@@H]2C3=O)O1`: the TGI was more than 100 µM.

`CC(C)=CCC(O)[C@](C)(O)[C@H]1[C@H](O)C[C@@]2(C)[C@@H]3CCc4cc(O)c(OC5OC(CO)C(O)C(O)C5O)cc4C3(C)C(=O)C[C@]12C` (stereo partly drawn) had a TGI of more than 100 µM.

In the case of `CC(C)c1ccc(-c2cc(-c3cn[nH]c3-c3ccccn3)ccn2)cc1`, the GI50 was more than 25 µM and the TGI was more than 25 µM.

`C=C(C)CCN[Si](c1ccccc1)(c1ccccc1)C(C)(C)C` came in with a TGI of more than 100 µM.

For the compound `Clc1cc(Cl)c2ns[s+]c2c1Cl`, the TGI was more than 100 µM.

The compound `CC(=O)Oc1ccc2cc(-c3ccccc3OC(C)=O)c(=O)oc2c1` gave a TGI of more than 100 µM.

With `CCCCC(CC)COC(=O)C[N+](C)(C)CCOC(c1ccccc1)c1ccccc1` (stereo not drawn), the GI50 was 11 µM and the TGI stood at 24.9 µM.

Regarding `Nc1ccccc1C#C/C=C\C#Cc1ccccc1N`, the GI50 was 19.1 µM and the TGI was determined as 54.1 µM.

For `COc1c(C(=O)/C=C/c2ccccc2)c(O)cc2occc12`, the GI50 is 13.6 µM and the TGI is 26.7 µM.

Compound `COc1ccc(C[N+](C)(C)N)cc1OC` had a TGI of more than 100 µM.

In the case of `N#Cc1cc(-c2cc3ccccc3o2)oc1N`, the GI50 is 3.81 µM and the TGI is 26.6 µM.

The compound `CSc1cc(Cl)c(C)cc1S(=O)(=O)NC(=O)NNc1cccc(C(F)(F)F)n1` yielded a TGI of more than 100 µM.

As for `CCOC(=O)/C(C)=C(/O)C(=O)OCC`, the TGI was more than 100 µM.

The compound `CN(C)CC1CCCC(CN(C)C)C1OC(=O)c1ccccc1` (stereo not drawn) returned a TGI of more than 100 µM.

The compound `CCO/C=N\C1=C(C#N)SC2=N/C(=C\c3ccc(OC)cc3)C(=O)N21` gave a TGI of more than 100 µM.

In turn, `CC1=CC(C)(C)N=C2SC(c3ccc(N)cc3)=NN12` gave a TGI of more than 100 µM.
